This is one part of the list.
Assays:
Experiment in all cases: glycan array binding signal (z-score within array); higher = stronger binding
Settings in all cases: glycan notation: IUPAC condensed, linker removed
Fuc(a1-2)Gal = biological target: Fuc(a1-2)Gal
In short: (§1)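 Arrays were curated from the Consortium for Functional Glycomics database, 3228 in total, and kept only where the protein sequence was available. Binding is expressed as a within-array Z-score. This score was averaged across arrays of the same protein sequence at different concentrations or buffers and across linkers, and negative values can be read as non-binding.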

Fuc(a1-2)Gal(b1-3)GalNAc = biological target: Fuc(a1-2)Gal(b1-3)GalNAc
In short: as §1

[1] = biological target: Fuc(a1-2)Gal(b1-3)GalNAc(a1-3)[Fuc(a1-2)]Gal(b1-4)Glc
In short: as §1

[2] = biological target: Fuc(a1-2)Gal(b1-3)GalNAc(a1-3)[Fuc(a1-2)]Gal(b1-4)GlcNAc
In short: as §1

[3] = biological target: Fuc(a1-2)Gal(b1-3)GalNAc(b1-3)Gal
In short: as §1

[4] = biological target: Fuc(a1-2)Gal(b1-3)GalNAc(b1-3)Gal(a1-4)Gal(b1-4)Glc
In short: as §1

[5] = biological target: Fuc(a1-2)Gal(b1-3)GalNAc(b1-4)[Neu5Ac(a2-3)]Gal(b1-4)Glc
In short: as §1

Fuc(a1-2)Gal(b1-3)GlcNAc = biological target: Fuc(a1-2)Gal(b1-3)GlcNAc
In short: as §1

[6] = biological target: Fuc(a1-2)Gal(b1-3)GlcNAc(b1-2)Man(a1-3)[Fuc(a1-2)Gal(b1-3)GlcNAc(b1-2)Man(a1-6)]Man(b1-4)GlcNAc(b1-4)GlcNAc
In short: as §1

[7] = biological target: Fuc(a1-2)Gal(b1-3)GlcNAc(b1-2)Man(a1-3)[Fuc(a1-2)Gal(b1-3)GlcNAc(b1-2)Man(a1-6)]Man(b1-4)GlcNAc(b1-4)[Fuc(a1-6)]GlcNAc
In short: as §1

[8] = biological target: Fuc(a1-2)Gal(b1-3)GlcNAc(b1-3)Gal(b1-4)Glc
In short: as §1

[9] = biological target: Fuc(a1-2)Gal(b1-3)GlcNAc(b1-3)GalNAc
In short: as §1

[10] = biological target: Fuc(a1-2)Gal(b1-3)GlcNAc(b1-3)[Fuc(a1-2)Gal(b1-3)GlcNAc(b1-6)]GalNAc
In short: as §1

[11] = biological target: Fuc(a1-2)Gal(b1-3)GlcNAc(b1-3)[Fuc(a1-3)[Gal(b1-4)]GlcNAc(b1-6)]Gal(b1-4)Glc
In short: as §1

[12] = biological target: Fuc(a1-2)Gal(b1-3)GlcNAc(b1-3)[Gal(b1-4)GlcNAc(b1-6)]Gal(b1-4)Glc
In short: as §1

[13] = biological target: Fuc(a1-2)Gal(b1-3)GlcNAc(b1-3)[Neu5Ac(a2-6)Gal(b1-4)GlcNAc(b1-6)]Gal(b1-4)Glc
In short: as §1

[14] = biological target: Fuc(a1-2)Gal(b1-3)GlcNAc6S
In short: as §1

[15] = biological target: Fuc(a1-2)Gal(b1-3)[Fuc(a1-4)]GlcNAc
In short: as §1

[16] = biological target: Fuc(a1-2)Gal(b1-3)[Fuc(a1-4)]GlcNAc(b1-2)Man(a1-3)[Fuc(a1-2)Gal(b1-3)[Fuc(a1-4)]GlcNAc(b1-2)Man(a1-6)]Man(b1-4)GlcNAc(b1-4)GlcNAc
In short: as §1

[17] = biological target: Fuc(a1-2)Gal(b1-3)[Fuc(a1-4)]GlcNAc(b1-2)Man(a1-6)[Fuc(a1-2)Gal(b1-3)[Fuc(a1-4)]GlcNAc(b1-2)Man(a1-3)]Man(b1-4)GlcNAc(b1-4)[Fuc(a1-6)]GlcNAc
In short: as §1

[18] = biological target: Fuc(a1-2)Gal(b1-3)[Fuc(a1-4)]GlcNAc(b1-3)[Fuc(a1-3)[Gal(b1-4)]GlcNAc(b1-6)]Gal(b1-4)Glc
In short: as §1

[19] = biological target: Fuc(a1-2)Gal(b1-3)[Fuc(a1-4)]GlcNAc(b1-3)[Gal(b1-4)GlcNAc(b1-6)]Gal(b1-4)Glc
In short: as §1

Fuc(a1-2)Gal(b1-4)Glc = biological target: Fuc(a1-2)Gal(b1-4)Glc
In short: as §1

Fuc(a1-2)Gal(b1-4)Glc6S = biological target: Fuc(a1-2)Gal(b1-4)Glc6S
In short: as §1

Fuc(a1-2)Gal(b1-4)GlcNAc = biological target: Fuc(a1-2)Gal(b1-4)GlcNAc
In short: as §1

[20] = biological target: Fuc(a1-2)Gal(b1-4)GlcNAc(b1-2)Man
In short: as §1

[21] = biological target: Fuc(a1-2)Gal(b1-4)GlcNAc(b1-2)Man(a1-3)[Fuc(a1-2)Gal(b1-4)GlcNAc(b1-2)Man(a1-6)]Man(b1-4)GlcNAc(b1-4)GlcNAc
In short: as §1

[22] = biological target: Fuc(a1-2)Gal(b1-4)GlcNAc(b1-2)Man(a1-3)[Fuc(a1-2)Gal(b1-4)GlcNAc(b1-2)Man(a1-6)]Man(b1-4)GlcNAc(b1-4)[Fuc(a1-6)]GlcNAc
In short: as §1

[23] = biological target: Fuc(a1-2)Gal(b1-4)GlcNAc(b1-2)[Fuc(a1-2)Gal(b1-4)GlcNAc(b1-4)]Man(a1-3)[Fuc(a1-2)Gal(b1-4)GlcNAc(b1-2)Man(a1-6)]Man(b1-4)GlcNAc(b1-4)GlcNAc
In short: as §1

[24] = biological target: Fuc(a1-2)Gal(b1-4)GlcNAc(b1-3)Gal(b1-4)GlcNAc
In short: as §1

B1: RVL (Remusatia vivipara), B5LYJ9 (protein)
chain: MAKLLLFLLPAILGLLVPRSAVALGTNYLLSGQTLDTEGHLKNGDFDLVMQDDCNLVLYNGNWQSNTANNGRDCKLTLTDYGELVIKNGDGSTVWKSGAQSVKGNYAAVVHPDGRLVVLGPSVFKIDPWVRGLNSLRFRNIPFTNNLLFSGQVLYGDGRLTAKNHQLVMQGDCNLVLYGGKYGWQSNTHGNGEHCFLRLNHKGELIIKDDDFKTIWSSRSSSKQGEYVLILQDDGFGVIYGPAIFETSSKRSIAAS
B1 was tested, and the “glycan array binding signal (z-score)” value (Fuc(a1-2)Gal) was -0.155, the “glycan array binding signal (z-score)” value (Fuc(a1-2)Gal(b1-3)GalNAc) was -0.203 and the “glycan array binding signal (z-score)” value [1] was -0.167. For the same binder, the “glycan array binding signal (z-score)” value [2] was -0.253, the “glycan array binding signal (z-score)” value [3] was -0.201 and the “glycan array binding signal (z-score)” value [4] was -0.225. The “glycan array binding signal (z-score)” value [5] was -0.119, the “glycan array binding signal (z-score)” value (Fuc(a1-2)Gal(b1-3)GlcNAc) was -0.158 and the “glycan array binding signal (z-score)” value [6] was -0.041. The “glycan array binding signal (z-score)” value [7] was -0.138, the “glycan array binding signal (z-score)” value [8] was -0.256 and the “glycan array binding signal (z-score)” value [9] was -0.196. For the same binder, the “glycan array binding signal (z-score)” value [10] was -0.152, the “glycan array binding signal (z-score)” value [11] was -0.102 and the “glycan array binding signal (z-score)” value [12] was -0.223. For the same binder, the “glycan array binding signal (z-score)” value [13] was 0.081, the “glycan array binding signal (z-score)” value [14] was 0.21 and the “glycan array binding signal (z-score)” value [15] was -0.3. For the same binder, the “glycan array binding signal (z-score)” value [16] was 1.29, the “glycan array binding signal (z-score)” value [17] was 0.351 and the “glycan array binding signal (z-score)” value [18] was -0.211. For the same binder, the “glycan array binding signal (z-score)” value [19] was -0.055, the “glycan array binding signal (z-score)” value (Fuc(a1-2)Gal(b1-4)Glc) was -0.2 and the “glycan array binding signal (z-score)” value (Fuc(a1-2)Gal(b1-4)Glc6S) was -0.189. For the same binder, the “glycan array binding signal (z-score)” value (Fuc(a1-2)Gal(b1-4)GlcNAc) was -0.153, the “glycan array binding signal (z-score)” value [20] was -0.16 and the “glycan array binding signal (z-score)” value [21] was 0.207. The “glycan array binding signal (z-score)” value [22] was 0.385, the “glycan array binding signal (z-score)” value [23] was 0.028 and the “glycan array binding signal (z-score)” value [24] was -0.238.
